Assay results from publication PMC7819943, “Rice protein-binding microarrays: a tool to detect cis-acting elements near promoter regions in rice”.
The list shows a part of the results.

These sequences were tested against T1, OsWOX13 (Oryza sativa, UniProt Q5QMM3 1-267) (assay: protein-binding microarray (RPBM); PBS, 2% BSA, 51.3 ng/ul salmon testes DNA, 50 uM zinc acetate, 200 nM TF, 25 C, 1 h; high values mean tight binding). Conditions: protein: recombinant; tags: N-terminal polyhistidine and DsRed monomer fusion (pET32a); label: CyDye5-dUTP incorporated in the synthesized complementary strand; 3' TTTTT single-stranded linker to array surface; dsDNA, one strand shown.
T1 sequence: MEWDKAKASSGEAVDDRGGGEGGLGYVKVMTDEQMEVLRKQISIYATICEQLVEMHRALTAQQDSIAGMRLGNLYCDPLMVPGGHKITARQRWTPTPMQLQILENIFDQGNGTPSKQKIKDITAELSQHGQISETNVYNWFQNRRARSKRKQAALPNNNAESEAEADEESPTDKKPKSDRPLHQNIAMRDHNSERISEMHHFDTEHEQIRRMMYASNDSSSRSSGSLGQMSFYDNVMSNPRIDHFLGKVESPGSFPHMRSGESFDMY
In short: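 Binding signal here means per-feature fluorescence intensity in arbitrary units. The values were read on an Axon 4000B scanner after a custom Agilent array, double-stranded by primer extension with Cy5-dUTP, was incubated with 200 nM protein at 25 °C for 1 h in PBS with 2% BSA, salmon testes DNA and 50 µM zinc acetate, then washed. The proteins were transcription factors with an N-terminal polyhistidine tag and DsRed, expressed in E. coli BL21-CodonPlus and purified on Ni–NTA.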

| Sequence | binding signal |
| --- | --- |
| AAAGATTGATAATGCCAAATGTTGCCAATATAAAAGATGCCGGAGTCACCTAGTGCAG | 44000 fluorescence intensity (a.u.) |
| ACACCTAAATTAGATAGATCTGTTATCGAGAGTGTGGACTCGGAGTCACCTAGTGCAG | 17500 fluorescence intensity (a.u.) |
| AAATAAAAGGAGTATTAATTAGATAGTGACACCGTGTGACCGGAGTCACCTAGTGCAG | 4970 fluorescence intensity (a.u.) |
| TAAAATTAGTCAAACTTAAAGCAGTTTGATTTTGACTAAACGGAGTCACCTAGTGCAG | 3740 fluorescence intensity (a.u.) |
| TTTTGTGCAATCAGAACCTGTCAGATGAAGCTGTTGTTGGCGGAGTCACCTAGTGCAG | 4120 fluorescence intensity (a.u.) |
| CAAATTTTGTCAATTTGGCAATATTGCCAAGTTTTGACATCGGAGTCACCTAGTGCAG | 20800 fluorescence intensity (a.u.) |
| TCAACATGATTATATAGCTATATGTTATCTAATTAATGCTCGGAGTCACCTAGTGCAG | 18900 fluorescence intensity (a.u.) |
| CATTATTGAGTGGTACCAAGATTTCAGATTTCTTGCTCCCCGGAGTCACCTAGTGCAG | 4490 fluorescence intensity (a.u.) |
| TTGATTTGTTTTCTTAGCCATCTAAAGCATTGAATGGAGTCGGAGTCACCTAGTGCAG | 14000 fluorescence intensity (a.u.) |
| TTTATTGACACTTCAGCTTATGTATTGACCTGTTATTTAGCGGAGTCACCTAGTGCAG | 3540 fluorescence intensity (a.u.) |
| TTTTCTAATCAATCTAGTTTCTTTAGCACTAAAACAATTGCGGAGTCACCTAGTGCAG | 17100 fluorescence intensity (a.u.) |
| CGGGATAATGATTATACACGGAATTACCACCGAAAGGGCCCGGAGTCACCTAGTGCAG | 24200 fluorescence intensity (a.u.) |
| ACTAATTGCACATATTACGACTAATTTACCAGATGAATCTCGGAGTCACCTAGTGCAG | 34700 fluorescence intensity (a.u.) |
| ATTTAAATTGCATGACTTTAAATATTAAAACAGTAATGATCGGAGTCACCTAGTGCAG | 18600 fluorescence intensity (a.u.) |
| TCATAAACTTTTGTTTATTTACCATGCACCAGTTCTGCATCGGAGTCACCTAGTGCAG | 4020 fluorescence intensity (a.u.) |
| CCCACACCTGACAACCAATCACGTCTTGGTGGCCCACATCCGGAGTCACCTAGTGCAG | 19500 fluorescence intensity (a.u.) |
| ATAAATTACTGGTCATATGCAGGGAAGCATAACGTTGTTGCGGAGTCACCTAGTGCAG | 16000 fluorescence intensity (a.u.) |
| TTTTAGATTGGGTTATTTATAAGGCTAAGTTTTAATTTAACGGAGTCACCTAGTGCAG | 4150 fluorescence intensity (a.u.) |
| TACATACAGAGCTGATGATTGATCGTTGGAGACTAGTACTCGGAGTCACCTAGTGCAG | 14100 fluorescence intensity (a.u.) |
| ATTAAAATTATGTATGATCATGGCAAATCCGCCTTGTGCTCGGAGTCACCTAGTGCAG | 8950 fluorescence intensity (a.u.) |
| CAAAAGATGAGTGATTAGAGAATAAGATTGAGGTATGTTGCGGAGTCACCTAGTGCAG | 11500 fluorescence intensity (a.u.) |

| Sequence | binding signal |
| --- | --- |
| CTGTAATTTACTTAGGAAATTTTATAATTTTCTTATGGTACGGAGTCACCTAGTGCAG | 28700 fluorescence intensity (a.u.) |
| GGCGGCGGCGGCGGGGCGGCGTGGCGCCGAGGGAGGGGAACGGAGTCACCTAGTGCAG | 3580 fluorescence intensity (a.u.) |
| GTTTAATTGGTAATATTTCACATGCTATAAGCTAATTTTACGGAGTCACCTAGTGCAG | 23800 fluorescence intensity (a.u.) |
| TTGATTGGGTTCTCATCTTGTACCGCTTTGCTCGGCGCAGCGGAGTCACCTAGTGCAG | 38300 fluorescence intensity (a.u.) |
| AAAATAATTTTGGATCATCTACATGGGTGTTAATATTTGTCGGAGTCACCTAGTGCAG | 9750 fluorescence intensity (a.u.) |
| TCTGATATAATTGGGCCTGGATGGAATGTATTTATGATTGCGGAGTCACCTAGTGCAG | 34500 fluorescence intensity (a.u.) |
| CTGCATACTTCTTGATTGGGATCCCTATTAGCTATAGCAACGGAGTCACCTAGTGCAG | 22000 fluorescence intensity (a.u.) |
| CACATTATGCTAATTTGGTAATTTTGCTGATGCATTCTAACGGAGTCACCTAGTGCAG | 7710 fluorescence intensity (a.u.) |
| TCCCAAGTGCCAACTAGTGATTGATGAGTGAGGAGGAAGACGGAGTCACCTAGTGCAG | 9500 fluorescence intensity (a.u.) |
| CTGATTAAGATTGGTACTTGCTCCGATAGAGAACTCTACGCGGAGTCACCTAGTGCAG | 30800 fluorescence intensity (a.u.) |
| GCTGTAAATTTTGCTGTCACCATAAAGTCCAACCGAATAACGGAGTCACCTAGTGCAG | 7320 fluorescence intensity (a.u.) |
| AATCAACCAATCACACCAAAGCGCAAGGAGTTCCCATCGGCGGAGTCACCTAGTGCAG | 8500 fluorescence intensity (a.u.) |
| AATGCCCAATTAACTAAGATCATGGGCGTTGATAATGATGCGGAGTCACCTAGTGCAG | 4800 fluorescence intensity (a.u.) |
| AATAATAATTAATTATAGTAATTAATCATTAATTTTGTACCGGAGTCACCTAGTGCAG | 64100 fluorescence intensity (a.u.) |
| ATTAATGCAGTAATTTTGTTAAGTACATCCCTTCGTCTCTCGGAGTCACCTAGTGCAG | 7280 fluorescence intensity (a.u.) |
| TTGATTATTCATTGCATTGGTTATAAGTCTCAACGGAATTCGGAGTCACCTAGTGCAG | 6500 fluorescence intensity (a.u.) |
| ATATTGTAATTATCAAAATTTCTCCTCTTTCTGTCTCCCACGGAGTCACCTAGTGCAG | 24400 fluorescence intensity (a.u.) |
| TCTGATGAACACATTGAGAAAGCAGATGAAGTTGCAGTGTCGGAGTCACCTAGTGCAG | 5120 fluorescence intensity (a.u.) |
| AGATGACTGAAATGGGAGTGAAACCAGATGCACGTGGGTACGGAGTCACCTAGTGCAG | 10500 fluorescence intensity (a.u.) |
| TTGAATTGGGATTAAACACATCGCTGTCCTTTCAACTCGGCGGAGTCACCTAGTGCAG | 8340 fluorescence intensity (a.u.) |
| GGACATCATGATTAACATGTTATGAGGGATCACTATACTTCGGAGTCACCTAGTGCAG | 6480 fluorescence intensity (a.u.) |
